Results as given in the supplement of paper PMC11417369.
This is one part of the list.

test system: PF3D7_0420300 AP2 domain 1 (GST-tagged); experiment: gcPBM binding intensity (ln(normalized median fluorescence intensity)); higher = stronger DNA binding
In short: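 Binding intensity is defined as the maximum Masliner-normalised natural-log median intensity across replicate spots for either probe orientation. It was measured on an Agilent 4 × 180k array of primer-extended double-stranded 36-bp intergenic genomic probes and negative controls, to which GST-tagged P. falciparum DNA-binding domains made in E. coli were applied for 1 h in 1× PBS with 1% milk, 0.2 mg/ml BSA, 0.5% salmon testes DNA and 0.03% Triton X-100. Detection was by Alexa488 anti-GST antibody and scanning at 488 nm.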

**Q.** “TATTTTTATTTTTAAACCATATATATATATATATAT [CACACA_negctrl_site1560]” was tested. Which “gcPBM binding intensity (ln)” value did it give?
**A.** 9.11

**Q.** How did the “gcPBM binding intensity (ln)” value turn out when “TATAGTTTCATTCTTTGTACATATATATTATTATTA [XGTACX_site8527]” was run?
**A.** 9.43

**Q.** How did the “gcPBM binding intensity (ln)” value turn out when “AGATTTATTCATTCATGTACTTATTTATTTTATTTT [XGTACX_site6702]” was run?
**A.** 9.49

**Q.** Which “gcPBM binding intensity (ln)” value does the source give for “AATGTGCAAACAAACTGTACTTTTTTTTTTTTTTTT [XGTACX_site928]” here?
**A.** 9.22

**Q.** How did the “gcPBM binding intensity (ln)” value turn out when “TAAGTTTTGTTCTTTTGTACATATAAGTATAGATCG [XGTACX_site4735]” was run?
**A.** 8.99

**Q.** With “AATGTTTTTGTGAGATGTATAAATTTTATTTTATTT [XGTACX_negctrl_site413]” as the sequence, how does the “gcPBM binding intensity (ln)” value read?
**A.** 9.24

**Q.** With “AAAAAAATAATGTACACACACATATAGGTTTATATA [CACACA_site192]” as the sequence, how does the “gcPBM binding intensity (ln)” value read?
**A.** 9.77

**Q.** With “AAACGTGTGTATAATAGTACATAATTATAACGTAAT [XGTACX_site421]” as the sequence, how does the “gcPBM binding intensity (ln)” value read?
**A.** 9.6

**Q.** With “CGTATTTTTGGACATGCATGTACAAATAATCTTATG [TGCATGCA_site973]” as the sequence, how does the “gcPBM binding intensity (ln)” value read?
**A.** 9.08

**Q.** How did the “gcPBM binding intensity (ln)” value turn out when “AAATTTGGCAAACACACACACACACCCACAGAGACA [CACACA_site4490]” was run?
**A.** 10.3

**Q.** “ATATATGGAGCTTATACACACTTTTATATTTTAACA [CACACA_site7757]” was tested. Which “gcPBM binding intensity (ln)” value did it give?
**A.** 9.57

**Q.** Which “gcPBM binding intensity (ln)” value does the source give for “TTGGGCATAATGTCATGTACACAAATAATTCTTTAT [XGTACX_site861]” here?
**A.** 9.09

**Q.** How did the “gcPBM binding intensity (ln)” value turn out when “TTAAAATTATAATACGTACACACCTTATCTTTTTGG [CACACA_site278]” was run?
**A.** 9.39

**Q.** Which “gcPBM binding intensity (ln)” value does the source give for “TGTTGTTTTATGTTGTATTGTAATATATTATATTAT [XGTACX_negctrl_site46]” here?
**A.** 9.77

**Q.** Which “gcPBM binding intensity (ln)” value does the source give for “GGCGTATGTGTATATACACACCCACGTATATATATA [CACACA_site9046]” here?
**A.** 9.5

**Q.** “ATATATAACGGGCACACACACATTTACGTATGAATA [CACACA_site1833]” was tested. Which “gcPBM binding intensity (ln)” value did it give?
**A.** 9.97

**Q.** How did the “gcPBM binding intensity (ln)” value turn out when “TTAGGATTGAAGAGTTGTACATACCTCTTATTTGTT [XGTACX_site1376]” was run?
**A.** 9.32

**Q.** Which “gcPBM binding intensity (ln)” value does the source give for “TATAAAATGTAATCTGAACACACATATTTTTTTAAT [CACACA_site8521]” here?
**A.** 9.3

**Q.** For “ATCATATATTATTTATGTACTTATTTATAATAATAT [XGTACX_site8257]”, which “gcPBM binding intensity (ln)” value is on record?
**A.** 9.28

**Q.** “TTTATTTATTATTATGTACACACTATATTAAAACAT [CACACA_site700]” was tested. Which “gcPBM binding intensity (ln)” value did it give?
**A.** 9.37

**Q.** With “TTATAATAAATATTCATATGTTCAAATATATATATA [CACACA_negctrl_site624]” as the sequence, how does the “gcPBM binding intensity (ln)” value read?
**A.** 8.93

**Q.** For “AAATATATTTCTTTTTTTCTTATTATTAATTTGCTT [CACACA_negctrl_site1483]”, which “gcPBM binding intensity (ln)” value is on record?
**A.** 9.2

**Q.** “TATAGATTTATATACACATGCATTTTGGTAAAGAAA [TGCATGCA_site953]” was tested. Which “gcPBM binding intensity (ln)” value did it give?
**A.** 9.12

**Q.** With “TATTTTTTTAATAACTGTACTTTTTTGTCAAATGGA [XGTACX_site4179]” as the sequence, how does the “gcPBM binding intensity (ln)” value read?
**A.** 8.9

**Q.** With “ATTGTAAGTAGACACACACACATATAGATGTATATA [CACACA_site6463]” as the sequence, how does the “gcPBM binding intensity (ln)” value read?
**A.** 9.83

**Q.** Which “gcPBM binding intensity (ln)” value does the source give for “ATTCATAATTTATTATGTACATATATATAATATATT [XGTACX_site1711]” here?
**A.** 9.15

**Q.** For “AAATAACAAATTTTTAAAATGTATATATATATATAT [TGCATGCA_negctrl_site219]”, which “gcPBM binding intensity (ln)” value is on record?
**A.** 8.94

**Q.** How did the “gcPBM binding intensity (ln)” value turn out when “AAGGATATAACATACACACACACACCCATATATATA [CACACA_site4142]” was run?
**A.** 10.3

**Q.** “AAAGAAATTATTTGTTGTACATATGTTATTTTTTTT [XGTACX_site7570]” was tested. Which “gcPBM binding intensity (ln)” value did it give?
**A.** 9.36

**Q.** With TGCAATTTAATATGAGTGCATATATTGAGAAAATAC as the sequence, how does the “gcPBM binding intensity (ln)” value read?
**A.** 9.19

**Q.** “TAAAACCTTTAAAATACATGCAGCATATATAAGTAA [TGCATGCA_site181]” was tested. Which “gcPBM binding intensity (ln)” value did it give?
**A.** 9.1

**Q.** Which “gcPBM binding intensity (ln)” value does the source give for “ATATCATGTTAAGATTGTACATATATATAATATATA [XGTACX_site7626]” here?
**A.** 9.11

**Q.** For “AATAAATTGGTATGTTGTACAAAGTAACCATCGATT [XGTACX_site2823]”, which “gcPBM binding intensity (ln)” value is on record?
**A.** 9.22

**Q.** How did the “gcPBM binding intensity (ln)” value turn out when “GGAAAATATGTTTGTGTGCACAGCTAGCTATTTGTA [GTGCAC_site9637]” was run?
**A.** 9.54

**Q.** How did the “gcPBM binding intensity (ln)” value turn out when “CACCCACACCAACACACACACATATATATATATATA [CACACA_site362]” was run?
**A.** 10.1

**Q.** Which “gcPBM binding intensity (ln)” value does the source give for “AATTTTTTTTGTCTCTGTACTTATAAAATATATATG [XGTACX_site4742]” here?
**A.** 9.38

**Q.** Which “gcPBM binding intensity (ln)” value does the source give for “TTTTTTTTTTTCAAGCGTACAAAAAATATATTTAAA [XGTACX_site5327]” here?
**A.** 8.74

**Q.** “AAATAAATTGATTCAACACACACATATGTAGGAAGT [CACACA_site9068]” was tested. Which “gcPBM binding intensity (ln)” value did it give?
**A.** 9.91

**Q.** “AAAAAAAATTTTAATTGTACAAAAAAAAAAAATATA [XGTACX_site2259]” was tested. Which “gcPBM binding intensity (ln)” value did it give?
**A.** 8.91

**Q.** How did the “gcPBM binding intensity (ln)” value turn out when “TATATATGGGTAACCTTTTTTTTTTTTTTTCGAACA [CACACA_negctrl_site1303]” was run?
**A.** 8.94

**Q.** “TTATTTTTTTTAAATTGTACAAGGAACAGTGAAAAA [XGTACX_site4380]” was tested. Which “gcPBM binding intensity (ln)” value did it give?
**A.** 9.1

**Q.** How did the “gcPBM binding intensity (ln)” value turn out when TTTGTGTGTACGCGTGTGCACATTTTTTTTTTTTTT was run?
**A.** 9.51

**Q.** Which “gcPBM binding intensity (ln)” value does the source give for “TATATAACCTATAGCACACATATATAATATATATTA [CACACA_site1834]” here?
**A.** 9.32

**Q.** For “TTCTATTCAAATGCAAAATTATTAAATAAAAAATAA [GTGCAC_negctrl_site708]”, which “gcPBM binding intensity (ln)” value is on record?
**A.** 8.95

**Q.** How did the “gcPBM binding intensity (ln)” value turn out when “ATTATTACATTTTTATGTACATATCAAATTTATACA [XGTACX_site7332]” was run?
**A.** 9.13

**Q.** How did the “gcPBM binding intensity (ln)” value turn out when “TTAACTTAAGGAGAGTGTACAAATAATAAAATATCT [XGTACX_site4118]” was run?
**A.** 9.28

**Q.** Which “gcPBM binding intensity (ln)” value does the source give for “TTAAAATATGAATAATGTACAAGAAATTTTATTAAT [XGTACX_site6314]” here?
**A.** 9.15

**Q.** Which “gcPBM binding intensity (ln)” value does the source give for “TCACTTAATATTTAATGTACATAAGGTTCTTGTGCC [XGTACX_site1822]” here?
**A.** 8.93

**Q.** Which “gcPBM binding intensity (ln)” value does the source give for TATAAATTAAAATGTGTGCACTAAATTGAAATAGAA here?
**A.** 9.5

**Q.** “ATATATATATATAATAGTACATATATTTTTATTGGT [XGTACX_site711]” was tested. Which “gcPBM binding intensity (ln)” value did it give?
**A.** 9.22

**Q.** With “TAACCTAAAATAACTACACACACATAAAAAAAAAAA [CACACA_site8807]” as the sequence, how does the “gcPBM binding intensity (ln)” value read?
**A.** 10.1

**Q.** How did the “gcPBM binding intensity (ln)” value turn out when “ATATTTTTTACAAATTGTACATTTTTACAATTATTA [XGTACX_site7496]” was run?
**A.** 9.18

**Q.** “TTATATAACATTATTTGTACATATAAAATATGGATG [XGTACX_site8526]” was tested. Which “gcPBM binding intensity (ln)” value did it give?
**A.** 9

**Q.** Which “gcPBM binding intensity (ln)” value does the source give for “AAAAAAAATTTATGGGGTACATATTATAATATTATA [XGTACX_site3395]” here?
**A.** 9.17

**Q.** “GTAGTGGTTGAATATACACACATATATAAATAAATA [CACACA_site7282]” was tested. Which “gcPBM binding intensity (ln)” value did it give?
**A.** 9.5

**Q.** How did the “gcPBM binding intensity (ln)” value turn out when “GTTTTCATCCAAAAAAGTACATTTATTTTTATACGA [XGTACX_site1039]” was run?
**A.** 9.03

**Q.** For “ATGTATGAATTACATAGTACATAAGAAAAAATGAAG [XGTACX_site5942]”, which “gcPBM binding intensity (ln)” value is on record?
**A.** 9.46
